The source gives no read counts; variants with many changes may rest on few reads.
B1: OR4K15 (parent)
chain: GUUAACGGUCAUAGGCCAUGGAAACUAGGAGCACCAUUUCGCUGCCAGUGAAGAAAUGAACAAAGAAAAUCUGGGCCAGGCAGGCAUCAAAAGAAAUAGUCUUGCGCUCAACCAGAAAGUCUGUAAUCAUUUUAAGGGUA

Variants of: B1
Experiment: self-cleavage, relative activity (ratio to wild type); higher = more cleavage; in vitro, sequencing; the parent is a self-cleaving ribozyme

| Variant | self-cleavage |
| --- | --- |
| A22G A55G A91G U122C | 0.88 |
| A22G A55G A96C | 0.56 |
| A22G A55G A96G U124C | 1.02 |
| A22G A55G A111G | 0.02 |
| A22G A56G A60C A78U A110U | 0.16 |
| A22G A56G A82G | 0.56 |
| A22G A59G A62G | 0.4 |
| A22G A59G A66G | 1.42 |
| A22G A59G A66G U70C G75C A118G | 0.11 |
| A22G A59G A78U | 0.24 |
| A22G A59G A129C | 2.23 |
| A22G A59G U87A | 1.77 |
| A22G A59U A68C | 1.24 |
| A22G A59U A96G U133C | 0.45 |
| A22G A60G A62G A78U A110G | 0.11 |
| A22G A60G A69G U103C | 0.24 |
| A22G A60G A94G | 1.18 |
| A22G A60G A98G A117G U122A U127C A140G | 0.19 |
| A22G A60G A129U | 0.17 |
| A22G A62G A68G U103C U130C | 0.63 |
| A22G A62G A92G A110G | 0.15 |
| A22G A62G A94G U100C A118G | 1.87 |
| A22G A62G U100C U102C A118U | 0.5 |
| A22G A62U A94G U122C | 1.41 |

| Variant | self-cleavage |
| --- | --- |
| A22G A62U U103C | 0.83 |
| A22G A63G A64U | 0.73 |
| A22G A63G A69G A118G | 1.09 |
| A22G A63G C77U | 1.85 |
| A22G A63G U133A | 1.38 |
| A22G A64C A94G A95G | 1.44 |
| A22G A64G A86U U124C U130C | 0.85 |
| A22G A64G U122G | 1.08 |
| A22G A66G A78G U87A U124C | 0.07 |
| A22G A66G A90G | 1.14 |
| A22G A67G A78U A110G U130C | 0.02 |
| A22G A68G A78U A125U | 0.17 |
| A22G A68G U70C A91G A94G A118G A125G U130C | 0 |
| A22G A68G U132C G137U | 1.96 |
| A22G A69G A114U A116G | 0.02 |
| A22G A69G A118G | 0.59 |
| A22G A69G U70C A86U U132C | 0.18 |
| A22G A69G U133C | 2.12 |
| A22G A69U U87C | 0.81 |
| A22G A78C A94G U100C A118G | 0.29 |
| A22G A78C A110G | 0.04 |
| A22G A78C U120C | 0.16 |
| A22G A78G A86G A118G | 0.12 |
| A22G A82C A117G | 0.18 |

| Variant | self-cleavage |
| --- | --- |
| A22G A86G A95G | 0.7 |
| A22G A86G A98G | 0.14 |
| A22G A89U A118G | 0.82 |
| A22G A89U U127C | 1.51 |
| A22G A90G A92C | 0.29 |
| A22G A90G A92G A116G | 0.1 |
| A22G A90G A94G A111G | 0.07 |
| A22G A90G A129U U130C | 0.68 |
| A22G A90G U132C | 0.85 |
| A22G A90U A114U | 0.21 |
| A22G A91G A92G U133G | 1.32 |
| A22G A91G A94G | 1.33 |
| A22G A92G U100C C109U A118G C121U | 1.24 |
| A22G A94G A98C | 1.71 |
| A22G A94G U102C | 2.01 |
| A22G A95G A118G G136A | 1.59 |
| A22G A95G A129G | 2.16 |
| A22G A95G U100C | 1.34 |
| A22G A96C U127C | 0.65 |
| A22G A96U U127C | 1.05 |
| A22G A98U A140G | 1.88 |
| A22G A98U U108A U127C | 0 |
| A22G A110U A117G | 1.5 |
| A22G A111G U122C G138A | 0.01 |

| Variant | self-cleavage |
| --- | --- |
| A22G A117G A140G | 0.22 |
| A22G C32U A60U | 1.92 |
| A22G C35U C112U A116G | 0 |
| A22G C42A U132C | 0.32 |
| A22G C71A U87A A94U | 1.04 |
| A22G C105A A116G U120C | 0.06 |
| A22G G28U A68G C113U U131C | 0.02 |
| A22G G28U U49C A69U | 1.92 |
| A22G G29A U37C A92G U103C A111G A126G | 0.04 |
| A22G G31C A64U A116C | 0.15 |
| A22G G44A U97C U124G | 0.31 |
| A22G G44U U124C U132C | 0.66 |
| A22G G48A A60G | 1.06 |
| A22G G58A G74U | 0.29 |
| A22G G73C G74C A110G | 0.01 |
| A22G G79A A82G A116G | 0.09 |
| A22G U26A A62G | 0.93 |
| A22G U26C A56G | 1.11 |
| A22G U26C A110G A117C | 0.17 |
| A22G U37C A56G A96G | 1.44 |
| A22G U37C A64G | 0.67 |
| A22G U37C A64G A91G | 1.23 |
| A22G U37C A67G | 0.86 |
| A22G U37C A68G U122C | 1.78 |

| Variant | self-cleavage |
| --- | --- |
| A22G U37C A89G A91G | 1.32 |
| A22G U37C A89G A118G A140G | 1.28 |
| A22G U37C A92G A116G A117U | 0.52 |
| A22G U37C A110G | 0.17 |
| A22G U37C A118G U131C | 0.42 |
| A22G U37C G74A A114G | 0.09 |
| A22G U37C G79A U132C | 0.06 |
| A22G U37C U43C U72C | 0.51 |
| A22G U37C U100C | 2.43 |
| A22G U37C U108A | 0.01 |
| A22G U37G A117G | 1.43 |
| A22G U38C A64G U103C U130C | 1.23 |
| A22G U38C A91G U102G A117U | 0.26 |
| A22G U38C U100C | 1.65 |
| A22G U38C U102C A126G | 1.19 |
| A22G U38C U122C | 1.46 |
| A22G U39C A55G A78C U132C | 0.22 |
| A22G U39C G73A U108C U130C | 0 |
| A22G U39C U43C C85U A118G | 0.65 |
| A22G U39C U70C A94G A111G | 0.02 |
| A22G U39C U70C G79A | 0.05 |
| A22G U39C U133C | 2.09 |
| A22G U43A A86G U132C | 1.42 |
| A22G U43A A90G A111G U120C | 0.01 |

| Variant | self-cleavage |
| --- | --- |
| A22G U43C A118G | 0.59 |
| A22G U43C U49C A54G C109A | 0.66 |
| A22G U43C U57C | 0.76 |
| A22G U43C U72A U127C | 0.15 |
| A22G U43G A140G | 0.58 |
| A22G U49A A90G | 1.09 |
| A22G U49A U122A | 1.48 |
| A22G U49C A51G A117G | 1.23 |
| A22G U49C A59G | 1.26 |
| A22G U49C A62G U70C U130C U139C | 0.18 |
| A22G U49C U132C | 1.51 |
| A22G U49G A111G | 0.05 |
| A22G U49G A126G | 0.65 |
| A22G U57C A62G C81U | 0.28 |
| A22G U57C U132C | 0.65 |
| A22G U57G A78G A90G | 0.26 |
| A22G U57G U87C U131A | 1.15 |
| A22G U70A A126U U132A | 0.25 |
| A22G U72C A92G | 0.39 |
| A22G U72C A96G A116G U132C | 0.08 |
| A22G U72C U87C | 0.23 |
| A22G U72C U102C | 0.4 |
| A22G U87C A90G A111G U120C A126G U127C | 0.01 |
| A22G U87C A126U | 0.76 |

| Variant | self-cleavage |
| --- | --- |
| A22G U87C U108A A114U | 0.02 |
| A22G U97C U100C U132C | 2.57 |
| A22G U100A U122A | 0.73 |
| A22G U103C C109U | 0.1 |
| A22G U103G A118G U122C | 0.02 |
| A22G U120C U132C A140G | 1.44 |
| A22G U122C U127A U132C | 0.44 |
| A22G U124G U127A A129G | 0.36 |
| A22G U132C A134G | 0.65 |
| A22U A23U A64G A68G | 1.16 |
| A22U A24U A33G U37C A89G A95G | 0.87 |
| A22U A27G U39C A118U | 0.24 |
| A22U A30G U37C U100C C107G A118G U130C | 0 |
| A22U A30U U43C A52G A89G U100C | 1 |
| A22U A33C A69G U108C | 0.03 |
| A22U A33C A95G A118G | 2.69 |
| A22U A33G A95G A129G | 0.85 |
| A22U A36G A98G A117U U130C | 0.31 |
| A22U A36G U38C A114G U127C | 0.03 |
| A22U A36G U100A A117G | 1.42 |
| A22U A47G U70C A92G U139C | 0.51 |
| A22U A47U A64G U70C | 0.63 |
| A22U A51G U100C | 1.54 |
